According to publication PMC5671938, “Multimerin-2 is a ligand for group 14 family C-type lectins CLEC14A, CD93 and CD248 spanning the endothelial pericyte interface” (Oncogene, 2017):
Results are given in words; binding and its absence hold for the method and conditions named. Some results given as binding are weak or reduced against the parent protein; the word gives no strength.

By UniProt entry, the sequences of proteins in these tests, tags left out. Residues count along the entry.
UniProt Q86T13, residues 22-397: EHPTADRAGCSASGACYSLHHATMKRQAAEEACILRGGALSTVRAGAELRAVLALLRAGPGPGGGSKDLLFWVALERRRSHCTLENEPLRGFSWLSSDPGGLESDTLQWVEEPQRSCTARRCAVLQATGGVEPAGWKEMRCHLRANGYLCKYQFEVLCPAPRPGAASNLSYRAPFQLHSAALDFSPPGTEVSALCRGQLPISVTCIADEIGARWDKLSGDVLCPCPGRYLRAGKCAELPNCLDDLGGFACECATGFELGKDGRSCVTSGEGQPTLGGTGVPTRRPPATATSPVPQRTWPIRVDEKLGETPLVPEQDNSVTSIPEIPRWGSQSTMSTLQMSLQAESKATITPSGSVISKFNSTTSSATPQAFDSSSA

Assays:
Assay in all cases: far-Western; lysates of HEK293T transfected with His-tagged MMRN2 constructs separated by SDS-PAGE under reducing conditions; probed 1 h with CLEC14A-ECD-Fc (2 μg/ml); only the binder purified
[1] = biological target: T1, MMRN2^604-674 (human) (UniProt Q9H8L6)
T1 sequence: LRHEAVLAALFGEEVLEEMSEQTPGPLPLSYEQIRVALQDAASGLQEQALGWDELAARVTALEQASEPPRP

[2] = biological target: T2, MMRN2^487-674 (human) (UniProt Q9H8L6)
T2 sequence: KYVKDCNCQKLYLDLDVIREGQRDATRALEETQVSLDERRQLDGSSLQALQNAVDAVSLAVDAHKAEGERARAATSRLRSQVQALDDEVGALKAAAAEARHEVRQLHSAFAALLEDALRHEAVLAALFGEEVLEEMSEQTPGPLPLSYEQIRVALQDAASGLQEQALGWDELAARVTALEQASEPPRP

[3] = biological target: T3, MMRN2 coiled-coil alone (MMRN2^CC) (human) (UniProt Q9H8L6)
T3 sequence: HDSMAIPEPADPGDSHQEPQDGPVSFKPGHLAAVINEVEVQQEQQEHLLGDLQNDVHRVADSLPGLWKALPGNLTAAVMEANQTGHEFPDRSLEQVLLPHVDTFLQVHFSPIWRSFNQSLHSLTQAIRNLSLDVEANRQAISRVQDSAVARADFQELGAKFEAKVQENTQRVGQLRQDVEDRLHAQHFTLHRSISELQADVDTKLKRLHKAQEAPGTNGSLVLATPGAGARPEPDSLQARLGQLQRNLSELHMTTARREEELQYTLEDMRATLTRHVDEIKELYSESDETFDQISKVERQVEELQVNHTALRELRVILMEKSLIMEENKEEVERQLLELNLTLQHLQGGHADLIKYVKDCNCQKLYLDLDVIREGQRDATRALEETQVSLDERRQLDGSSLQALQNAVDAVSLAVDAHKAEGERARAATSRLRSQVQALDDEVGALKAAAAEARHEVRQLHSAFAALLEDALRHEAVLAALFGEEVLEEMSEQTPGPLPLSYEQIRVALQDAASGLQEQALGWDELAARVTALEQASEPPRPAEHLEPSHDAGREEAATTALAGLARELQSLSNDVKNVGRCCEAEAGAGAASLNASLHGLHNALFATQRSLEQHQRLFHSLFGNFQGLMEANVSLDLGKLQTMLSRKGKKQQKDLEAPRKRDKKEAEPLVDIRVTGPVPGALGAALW

[4] = biological target: T4, MMRN2 EMI and coiled-coil construct (MMRN2^EMI-CC) (human) (UniProt Q9H8L6)
T4 sequence: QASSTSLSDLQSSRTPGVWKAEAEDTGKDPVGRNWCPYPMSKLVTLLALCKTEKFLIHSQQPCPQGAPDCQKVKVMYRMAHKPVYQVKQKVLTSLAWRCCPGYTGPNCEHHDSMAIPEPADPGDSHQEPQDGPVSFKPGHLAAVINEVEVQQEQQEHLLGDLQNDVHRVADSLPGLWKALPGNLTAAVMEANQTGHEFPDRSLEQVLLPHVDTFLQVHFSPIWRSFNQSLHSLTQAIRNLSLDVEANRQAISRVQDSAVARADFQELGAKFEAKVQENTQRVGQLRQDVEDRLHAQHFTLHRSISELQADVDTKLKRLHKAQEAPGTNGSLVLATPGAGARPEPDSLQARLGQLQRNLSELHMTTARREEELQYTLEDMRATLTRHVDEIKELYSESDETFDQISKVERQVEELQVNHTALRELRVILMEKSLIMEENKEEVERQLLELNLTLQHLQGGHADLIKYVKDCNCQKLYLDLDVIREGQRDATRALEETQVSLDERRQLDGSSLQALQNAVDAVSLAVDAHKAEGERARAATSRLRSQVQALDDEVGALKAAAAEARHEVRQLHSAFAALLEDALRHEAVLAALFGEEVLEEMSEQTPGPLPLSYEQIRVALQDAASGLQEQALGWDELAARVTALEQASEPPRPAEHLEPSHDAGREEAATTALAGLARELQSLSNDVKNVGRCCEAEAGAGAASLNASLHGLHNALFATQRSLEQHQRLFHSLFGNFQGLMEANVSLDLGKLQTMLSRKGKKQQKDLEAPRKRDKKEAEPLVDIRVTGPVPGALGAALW

[5] = biological target: T5, MMRN2^530-624 (human) (UniProt Q9H8L6)
T5 sequence: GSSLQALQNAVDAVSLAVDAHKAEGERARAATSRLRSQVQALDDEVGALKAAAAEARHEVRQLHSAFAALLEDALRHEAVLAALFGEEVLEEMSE

[6] = biological target: T6, MMRN2^487-603 (human) (UniProt Q9H8L6)
T6 sequence: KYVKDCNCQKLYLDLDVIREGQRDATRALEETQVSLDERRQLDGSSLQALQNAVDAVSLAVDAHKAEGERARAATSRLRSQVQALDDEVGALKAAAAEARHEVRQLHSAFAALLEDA

binding [1]: no binding (tested: 2 μg/ml)
binding [2]: binds
binding [3]: binds
binding [4]: binds
binding [5]: binds
binding [6]: no binding (tested: 2 μg/ml)
Substance: recombinant CLEC14A extracellular domain with an Fc tag (CLEC14A-ECD-Fc) (from UniProt Q86T13 22-397) (Fc fusion)
